Experimental data from article PMC11772845.
These are yes or no findings as the source states them, for the method shown. Binding seen in cells or lysates may run through a third protein. Some entries that bind do so weakly or less than the wild type.

What was measured:
[1] = biological target: T1, Mic60_(ProtA) (S. cerevisiae) (UniProt P36112); experiment: co-IP; protein A- or TAP-tagged bait captured on IgG-Sepharose from mitochondria solubilised in 1% digitonin (20 mM Tris-HCl pH 7.4, 50 mM NaCl, 0.1 mM EDTA, 10% glycerol), washed with 0.3% digitonin, eluted with TEV protease at 4 °C; eluates analysed by SDS-PAGE or BN-PAGE and western blot; untagged wild type as control; also done with rho-, mic10Δ (Mic60 bait), mar26Δ, rip1Δ and Mar26-overexpressing mitochondria
T1 sequence: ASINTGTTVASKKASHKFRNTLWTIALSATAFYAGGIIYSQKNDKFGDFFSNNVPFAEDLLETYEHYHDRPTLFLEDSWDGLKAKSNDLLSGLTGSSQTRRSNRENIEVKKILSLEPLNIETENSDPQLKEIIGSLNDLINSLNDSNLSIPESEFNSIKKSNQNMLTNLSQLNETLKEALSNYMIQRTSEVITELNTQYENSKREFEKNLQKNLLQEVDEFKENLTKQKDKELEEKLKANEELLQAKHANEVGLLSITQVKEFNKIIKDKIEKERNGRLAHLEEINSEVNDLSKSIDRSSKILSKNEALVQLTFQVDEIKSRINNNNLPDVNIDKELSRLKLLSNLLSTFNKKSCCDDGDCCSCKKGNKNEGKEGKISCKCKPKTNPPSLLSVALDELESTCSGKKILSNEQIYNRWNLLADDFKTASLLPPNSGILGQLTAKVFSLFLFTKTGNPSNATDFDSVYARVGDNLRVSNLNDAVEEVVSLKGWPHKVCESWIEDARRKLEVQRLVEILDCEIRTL

[2] = biological target: T2, Mic12_(ProtA) (S. cerevisiae) (UniProt P38341); experiment: as above
T2 sequence: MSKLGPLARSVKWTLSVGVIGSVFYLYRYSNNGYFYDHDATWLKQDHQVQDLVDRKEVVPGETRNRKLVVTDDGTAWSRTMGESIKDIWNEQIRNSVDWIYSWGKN

[3] = biological target: T1, Mic60_(ProtA) (S. cerevisiae); experiment: co-IP; [^35S]-labelled precursor imported into isolated mitochondria that carry the protein A-tagged bait; then digitonin solubilisation, IgG chromatography, SDS-PAGE (or two-dimensional gel) and autoradiography

B1: Cyt1 (protein, UniProt P07143 62-309)
chain: MTAAEHGLHAPAYAWSHNGPFETFDHASIRRGYQVYREVCAACHSLDRVAWRTLVGVSHTNEEVRNMAEEFEYDDEPDEQGNPKKRPGKLSDYIPGPYPNEQAARAANQGALPPDLSLIVKARHGGCDYIFSLLTGYPDEPPAGVALPPGSNYNPYFPGGSIAMARVLFDDMVEYEDGTPATTSQMAKDVTTFLNWCAEPEHDERKRLGLKTVIILSSLYLLSIWVKKFKWAGIKTRKFVFNPPKPRK
binding [1]: binds

B2: Rcf1 (protein, UniProt Q03713 1-159)
chain: MSRMPSSFDVTERDLDDMTFGERIIYHCKKQPLVPIGCLLTTGAVILAAQNVRLGNKWKAQYYFRWRVGLQAATLVALVAGSFIYGTSGKELKAKEEQLKEKAKMREKLWIQELERREEETEARRKRAELARMKTLENEEEIKNLEKELSDLENKLGKK
binding [2]: binds | binding [1]: binds

B3: Rcf2 (protein, UniProt P53721 1-224)
chain: MKILTQDEIEAHRSHTLKGGIEGALAGFAISAIIFKVLPRRYPKFKPSTLTWSIKTALWITPPTVLTAICAEEASNNFDATMYGSGSSSEDALDEHRRWKSLSTKDKFVEGLSNNKYKIITGAWAASLYGSWVIVNKDPIMTKAQKIVQARMYAQFITVGLLLASVGLSMYENKLHPNKQKVNEMRRWENALRVAEEEERLEKEGRRTGYVSNEERINSKIFKS
binding [2]: binds | binding [1]: binds

B4: Shy1 (protein, UniProt P53266 1-389)
chain: MSLLGARSTYRWFSIAASIPTKNAIGKSTYLLASRNQQYRGIITSTVDWKPIKTGKSPNDDSRRERSFGKKIVLGLMFAMPIISFYLGTWQVRRLKWKTKLIAACETKLTYEPIPLPKSFTPDMCEDWEYRKVILTGHFLHNEEMFVGPRKKNGEKGYFLFTPFIRDDTGEKVLIERGWISEEKVAPDSRNLHHLSLPQEEHLKVVCLVRPPKKRGSLQWAKKDPNSRLWQVPDIYDMARSSGCTPIQFQALYDMKDHPIIEEHTRNEASQNNSTSSLWKFWKREPTTAVNGTQAVDNNTSKPRSRQEMPTDQTIEFDERQFIKAGVPIGRKPTIDLKNNHLQYLVTWYGLSFLSTIFLIVALRKAKRGGVVSQDQLMKEKLKHSRKYM
binding [2]: binds | binding [1]: binds

B5: Mic26 (protein, UniProt P50087 1-233)
chain: MTKDFYRQLDPVEEKIVPPENAIVISSEAKEATVNEKEAKQGVLSQRVMKYIGENELVDGISVRDPDYLKRFFNERRKQFSAKWDKVTNKIDDIAGRYYAREESFTSTIASLHTDPNERLIPGLLSILVASMTGSVLARRRTWLLRATMPIILGSCCFAYAMPTTFRNTMGLIHNLEMNTFPHFTERQDRVWKETKRLSTASVQYYYDAKKWLNKDVEKTGNAIKNWTGVNVK
binding [1]: binds

B6: Qcr8 (protein, UniProt P08525 1-94)
chain: MGPPSGKTYMGWWGHMGGPKQKGITSYAVSPYAQKPLQGIFHNAVFNSFRRFKSQFLYVLIPAGIYWYWWKNGNEYNEFLYSKAGREELERVNV
binding [1]: binds

B7: Tom22 (protein, UniProt P49334 1-152)
chain: MVELTEIKDDVVQLDEPQFSRNQAIVEEKASATNNDVVDDEDDSDSDFEDEFDENETLLDRIVALKDIVPPGKRQTISNFFGFTSSFVRNAFTKSGNLAWTLTTTALLLGVPLSLSILAEQQLIEMEKTFDLQSDANNILAQGEKDAAATAN
binding [2]: no binding | binding [1]: binds

B8: Mss51 (protein, UniProt P32335 27-436)
chain: VVSHQTRRHLMGFVRNALGLDPPPSPEDPTPENRFHPWDQSPSVDLRERAAKIRTLAHCPVTGKDINYTCPLSGIPTHHSREAWEMDKAYHDSKKYEILKKVNIYEHDLRSGRPFPEFDFPQQQGYDKAVNLTNWDLFFYTRSFYSMDTEFQLAAVTKMLSYPITIGSLLHKFSPYSLNPKGPITLEGLKSLAALRYTLYPLENRSLPTTTKNRAMRIFILGARAEAQLPGHVWKQLQFLFPEQSFEIHFIGPECLYKRDKQEYVKSTTPVVQRVDETLKFIYRTNFFEVFHEAQDFFPYDPYMDVFFTFHPGYASPESHGSWMGETMKALLETKCAIFTTGFNKKDLTDDINLVKSKYGKEMDVLMEPVRNVFGSTKWELNDMNPQEVYQFNMYIAGFRGKRYHTIKRQ
binding [2]: binds | binding [1]: binds

B9: Rip1 (protein, UniProt P08067 31-215)
chain: KSTYRTPNFDDVLKENNDADKGRSYAYFMVGAMGLLSSAGAKSTVETFISSMTATADVLAMAKVEVNLAAIPLGKNVVVKWQGKPVFIRHRTPHEIQEANSVDMSALKDPQTDADRVKDPQWLIMLGICTHLGCVPIGEAGDFGGWFCPCHGSHYDISGRIRKGPAPLNLEIPAYEFDGDKVIVG
binding [1]: binds

B10: Cox2 (protein, UniProt P00410 16-251)
chain: DVPTPYACYFQDSATPNQEGILELHDNIMFYLLVILGLVSWMLYTIVMTYSKNPIAYKYIKHGQTIEVIWTIFPAVILLIIAFPSFILLYLCDEVISPAMTIKAIGYQWYWKYEYSDFINDSGETVEFESYVIPDELLEEGQLRLLDTDTSMVVPVDTHIRFVVTAADVIHDFAIPSLGIKVDATPGRLNQVSALIQREGVFYGACSELCGTGHANMPIKIEAVSLPKFLEWLNEQ
binding [1]: binds

B11: Cox9 (protein, UniProt P07255 1-59)
chain: MTIAPITGTIKRRVIMDIVLGFSLGGVMASYWWWGFHMDKINKREKFYAELAERKKQEN
binding [1]: binds

B12: Radiolabeled Rip1 (protein, UniProt P08067 1-215)
chain: MLGIRSSVKTCFKPMSLTSKRLISQSLLASKSTYRTPNFDDVLKENNDADKGRSYAYFMVGAMGLLSSAGAKSTVETFISSMTATADVLAMAKVEVNLAAIPLGKNVVVKWQGKPVFIRHRTPHEIQEANSVDMSALKDPQTDADRVKDPQWLIMLGICTHLGCVPIGEAGDFGGWFCPCHGSHYDISGRIRKGPAPLNLEIPAYEFDGDKVIVG
modifications: [^35S]methionine label
binding [3]: binds

B13: OM14 (protein, UniProt P38325 1-134)
chain: MSATAKHDSNASPNSDSEDGHHHNNKKECAIEYLKARLNSASAVACGYLQAFVSKTQDFAKVCFLELQNPVVLVNLLLHSSVVCYLCNGYANHNARFLKGKPNSTVLATTAGALGLLTLDGIISKKYYSRYDKK
binding [2]: no binding | binding [1]: no binding

B14: Atp19 (protein, UniProt P81451 1-68)
chain: MGAAYHFMGKAIPPHQLAIGTLGLLGLLVVPNPFKSAKPKTVDIKTDNKDEEKFIENYLKKHSEKQDA
binding [2]: no binding | binding [1]: no binding

B15: Atp20 (protein, UniProt Q12233 1-115)
chain: MLSRIQNYTSGLVSKANLLSSKALYYGKVGAEISKQIYLKEGLQPPTVAQFKSVYSNLYKQSLNFALKPTEVLSCLKNIQKNELLKYGAYGIQLIGFYSVGEIIGRRKLVGYKHH
binding [2]: no binding | binding [1]: no binding

B16: Atp21 (protein, UniProt P81449 1-96)
chain: MSTVNVLRYSALGLGLFFGFRNDMILKCNAKKKEEQAQYEEKLKLVEEAKKEYAKLHPVVTPKDVPANASFNLEDPNIDFERVILNAVESLKEAST
binding [1]: no binding

B17: Yme1 (protein, UniProt P32795 1-747)
chain: MNVSKILVSPTVTTNVLRIFAPRLPQIGASLLVQKKWALRSKKFYRFYSEKNSGEMPPKKEADSSGKASNKSTISSIDNSQPPPPSNTNDKTKQANVAVSHAMLATREQEANKDLTSPDAQAAFYKLLLQSNYPQYVVSRFETPGIASSPECMELYMEALQRIGRHSEADAVRQNLLTASSAGAVNPSLASSSSNQSGYHGNFPSMYSPLYGSRKEPLHVVVSESTFTVVSRWVKWLLVFGILTYSFSEGFKYITENTTLLKSSEVADKSVDVAKTNVKFDDVCGCDEARAELEEIVDFLKDPTKYESLGGKLPKGVLLTGPPGTGKTLLARATAGEAGVDFFFMSGSEFDEVYVGVGAKRIRDLFAQARSRAPAIIFIDELDAIGGKRNPKDQAYAKQTLNQLLVELDGFSQTSGIIIIGATNFPEALDKALTRPGRFDKVVNVDLPDVRGRADILKHHMKKITLADNVDPTIIARGTPGLSGAELANLVNQAAVYACQKNAVSVDMSHFEWAKDKILMGAERKTMVLTDAARKATAFHEAGHAIMAKYTNGATPLYKATILPRGRALGITFQLPEMDKVDITKRECQARLDVCMGGKIAEELIYGKDNTTSGCGSDLQSATGTARAMVTQYGMSDDVGPVNLSENWESWSNKIRDIADNEVIELLKDSEERARRLLTKKNVELHRLAQGLIEYETLDAHEIEQVCKGEKLDKLKTSTNTVVEGPDSDERKDIGDDKPKIPTMLNA
binding [1]: no binding
